# Measured values taken from the supplement of paper PMC8728848.
# Some of the results follow.
# Tests used:
# Assay in all cases: glycan array binding signal (z-score within array); higher = stronger binding
# Conditions in all cases: glycan notation: IUPAC condensed, linker removed
# [1] = target: Gal(b1-2)Gal
# Procedure, shortened: (§1)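 From the Consortium for Functional Glycomics database, 3228 arrays were curated, keeping only those whose protein sequence was available. Binding is given as a within-array Z-score averaged across arrays sharing a protein sequence and across linkers. Negative Z-scores can be read as non-binding.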
# [2] = target: Gal(b1-3)Gal
# Procedure, shortened: as §1
# [3] = target: Gal(b1-3)Gal(b1-4)GlcNAc
# Procedure, shortened: as §1
# [4] = target: Gal(b1-3)GalNAc
# Procedure, shortened: as §1
# [5] = target: Gal(b1-3)GalNAc(a1-3)[Fuc(a1-2)]Gal(b1-4)Glc
# Procedure, shortened: as §1
# [6] = target: Gal(b1-3)GalNAc(a1-3)[Fuc(a1-2)]Gal(b1-4)GlcNAc
# Procedure, shortened: as §1
# [7] = target: Gal(b1-3)GalNAc(b1-3)Gal
# Procedure, shortened: as §1
# [8] = target: Gal(b1-3)GalNAc(b1-3)Gal(a1-4)Gal(b1-4)Glc
# Procedure, shortened: as §1
# [9] = target: Gal(b1-3)GalNAc(b1-4)Gal(b1-4)Glc
# Procedure, shortened: as §1
# [10] = target: Gal(b1-3)GalNAc(b1-4)[Neu5Ac(a2-3)]Gal(b1-4)Glc
# Procedure, shortened: as §1
# [11] = target: Gal(b1-3)GlcNAc
# Procedure, shortened: as §1
# [12] = target: Gal(b1-3)GlcNAc(a1-3)Gal(b1-4)GlcNAc
# Procedure, shortened: as §1
# [13] = target: Gal(b1-3)GlcNAc(a1-6)Gal(b1-4)GlcNAc
# Procedure, shortened: as §1
# [14] = target: Gal(b1-3)GlcNAc(b1-2)Man
# Procedure, shortened: as §1
# [15] = target: Gal(b1-3)GlcNAc(b1-2)Man(a1-3)[Gal(b1-3)GlcNAc(b1-2)Man(a1-6)]Man(b1-4)GlcNAc(b1-4)GlcNAc
# Procedure, shortened: as §1
# [16] = target: Gal(b1-3)GlcNAc(b1-2)Man(a1-3)[Gal(b1-3)GlcNAc(b1-2)Man(a1-6)]Man(b1-4)GlcNAc(b1-4)[Fuc(a1-6)]GlcNAc
# Procedure, shortened: as §1
# [17] = target: Gal(b1-3)GlcNAc(b1-2)Man(a1-3)[GlcNAc(b1-4)][Gal(b1-3)GlcNAc(b1-2)Man(a1-6)]Man(b1-4)GlcNAc(b1-4)GlcNAc
# Procedure, shortened: as §1
# [18] = target: Gal(b1-3)GlcNAc(b1-2)[Gal(b1-3)GlcNAc(b1-6)]Man(a1-6)[Gal(b1-3)GlcNAc(b1-2)Man(a1-3)]Man(b1-4)GlcNAc(b1-4)GlcNAc
# Procedure, shortened: as §1
# [19] = target: Gal(b1-3)GlcNAc(b1-3)Gal(b1-3)GlcNAc
# Procedure, shortened: as §1
# [20] = target: Gal(b1-3)GlcNAc(b1-3)Gal(b1-4)Glc
# Procedure, shortened: as §1
# [21] = target: Gal(b1-3)GlcNAc(b1-3)Gal(b1-4)GlcNAc
# Procedure, shortened: as §1
# [22] = target: Gal(b1-3)GlcNAc(b1-3)Gal(b1-4)GlcNAc(b1-2)Man(a1-3)[Gal(b1-3)GlcNAc(b1-3)Gal(b1-4)GlcNAc(b1-2)Man(a1-6)]Man(b1-4)GlcNAc(b1-4)GlcNAc
# Procedure, shortened: as §1
# [23] = target: Gal(b1-3)GlcNAc(b1-3)Gal(b1-4)GlcNAc(b1-2)[Gal(b1-3)GlcNAc(b1-3)Gal(b1-4)GlcNAc(b1-6)]Man(a1-6)[Gal(b1-3)GlcNAc(b1-3)Gal(b1-4)GlcNAc(b1-2)Man(a1-3)]Man(b1-4)GlcNAc(b1-4)[Fuc(a1-6)]GlcNAc
# Procedure, shortened: as §1
# [24] = target: Gal(b1-3)GlcNAc(b1-3)Gal(b1-4)GlcNAc(b1-3)Gal(b1-4)GlcNAc(b1-2)[Gal(b1-3)GlcNAc(b1-3)Gal(b1-4)GlcNAc(b1-3)Gal(b1-4)GlcNAc(b1-6)]Man(a1-6)[Gal(b1-3)GlcNAc(b1-3)Gal(b1-4)GlcNAc(b1-3)Gal(b1-4)GlcNAc(b1-2)Man(a1-3)]Man(b1-4)GlcNAc(b1-4)[Fuc(a1-6)]GlcNAc
# Procedure, shortened: as §1
# [25] = target: Gal(b1-3)GlcNAc(b1-3)Gal(b1-4)GlcNAc(b1-6)[Gal(b1-3)GlcNAc(b1-3)]Gal(b1-4)Glc
# Procedure, shortened: as §1
# [26] = target: Gal(b1-3)GlcNAc(b1-3)Gal(b1-4)[Fuc(a1-3)]GlcNAc
# Procedure, shortened: as §1
# [27] = target: Gal(b1-3)GlcNAc(b1-3)Gal(b1-4)[Fuc(a1-3)]GlcNAc(b1-6)[Gal(b1-3)GlcNAc(b1-3)]Gal(b1-4)Glc
# Procedure, shortened: as §1
# [28] = target: Gal(b1-3)GlcNAc(b1-3)GalNAc
# Procedure, shortened: as §1
# [29] = target: Gal(b1-3)GlcNAc(b1-6)Gal(b1-4)GlcNAc
# Procedure, shortened: as §1
# [30] = target: Gal(b1-3)GlcNAc(b1-6)GalNAc
# Procedure, shortened: as §1
# [31] = target: Gal(b1-3)GlcNAc(b1-6)[Gal(b1-3)]GalNAc
# Procedure, shortened: as §1
# [32] = target: Gal(b1-3)GlcNAc6S
# Procedure, shortened: as §1
# [33] = target: Gal(b1-3)[Fuc(a1-4)]GlcNAc
# Procedure, shortened: as §1
# [34] = target: Gal(b1-3)[Fuc(a1-4)]GlcNAc(b1-2)Man
# Procedure, shortened: as §1
# [35] = target: Gal(b1-3)[Fuc(a1-4)]GlcNAc(b1-2)Man(a1-3)[Gal(b1-3)[Fuc(a1-4)]GlcNAc(b1-2)Man(a1-6)]Man(b1-4)GlcNAc(b1-4)[Fuc(a1-6)]GlcNAc
# Procedure, shortened: as §1
# [36] = target: Gal(b1-3)[Fuc(a1-4)]GlcNAc(b1-3)Gal(b1-3)[Fuc(a1-4)]GlcNAc
# Procedure, shortened: as §1
# [37] = target: Gal(b1-3)[Fuc(a1-4)]GlcNAc(b1-3)Gal(b1-4)[Fuc(a1-3)]GlcNAc
# Procedure, shortened: as §1
binder,measurement,setting,value
FGFR2-Fc (protein) MVNVTDAISSGDDEDDTDGAEDFVSENSNNKRAPYWTNTEKMEKRLHAVPAANTVKFRCPAGGNPMPTMRWLKNGKEFKQEHRIGGYKVRNQHWSLIMESVVPSDKGNYTCVVENEYGSINHTYHLDVVERSPHRPILQAGLPANASTVVGGDVEFVCKVYSDAQPHIQWIKHVEKNGSKYGPDGLPYLKVLKHSGINSSNAEVLALFNVTEADAGEYICKVSNYIGQANQSAWLTVLPKQQAPGREKEITASPDYLETRPLEQKLISEEDLAANDILDYKDDDDKV,glycan array binding signal (z-score),[1],-0.626
same,glycan array binding signal (z-score),[2],-0.344
same,glycan array binding signal (z-score),[3],-0.562
same,glycan array binding signal (z-score),[4],0.236
same,glycan array binding signal (z-score),[5],-0.334
same,glycan array binding signal (z-score),[6],-0.577
same,glycan array binding signal (z-score),[7],-0.011
same,glycan array binding signal (z-score),[8],0.228
same,glycan array binding signal (z-score),[9],0.217
same,glycan array binding signal (z-score),[10],0.495
same,glycan array binding signal (z-score),[11],-0.386
same,glycan array binding signal (z-score),[12],0.499
same,glycan array binding signal (z-score),[13],0.105
same,glycan array binding signal (z-score),[14],0.58
same,glycan array binding signal (z-score),[15],0.547
same,glycan array binding signal (z-score),[16],0.412
same,glycan array binding signal (z-score),[17],-0.217
same,glycan array binding signal (z-score),[18],0.991
same,glycan array binding signal (z-score),[19],-0.42
same,glycan array binding signal (z-score),[20],-0.488
same,glycan array binding signal (z-score),[21],-0.553
same,glycan array binding signal (z-score),[22],0.313
same,glycan array binding signal (z-score),[23],0.368
same,glycan array binding signal (z-score),[24],0.342
same,glycan array binding signal (z-score),[25],0.637
same,glycan array binding signal (z-score),[26],-0.305
same,glycan array binding signal (z-score),[27],-0.475
same,glycan array binding signal (z-score),[28],-0.535
same,glycan array binding signal (z-score),[29],0.196
same,glycan array binding signal (z-score),[30],-0.568
same,glycan array binding signal (z-score),[31],-0.475
same,glycan array binding signal (z-score),[32],-0.542
same,glycan array binding signal (z-score),[33],0.062
same,glycan array binding signal (z-score),[34],0.186
same,glycan array binding signal (z-score),[35],0.322
same,glycan array binding signal (z-score),[36],0.443
same,glycan array binding signal (z-score),[37],-0.344
